Source: the supplement of paper PMC3334620
Whole data set: some 33,000 sequences, median “E-score (-0.5 to 0.5)” near -0.016, cut for the highest 2% near 0.31. Some of the results follow.

These sequences were tested against Cst6 (UniProt P40535) (assay: PBM E-score (8-mer binding enrichment) (E-score (-0.5 to 0.5)); higher = stronger / more preferred TF binding; most listed sequences are background and not binding sites). Conditions: protein concentration: 200 nM; construct: GST-DNA-binding domain.
In short: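 GST-tagged yeast TFs (full-length or DNA-binding domain) were made by PURExpress in vitro transcription/translation and applied at about 100-200 nM to universal all-10-mer Agilent arrays. The arrays were made double-stranded by primer extension, on fresh or once-stripped slides. Bound protein was detected with fluorescent anti-GST, and scans were normalised with masliner. Each ungapped eight-base word, pooled with its reverse complement, received an E-score (modified Wilcoxon-Mann-Whitney statistic) from the Universal PBM Analysis Suite.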

| Sequence | PBM E-score |
| --- | --- |
| GTTTGAAA | 0.174 |
| CGCTTACC | -0.0239 |
| GCCACATA | 0.0537 |
| AAATGCGG | 0.106 |
| CACCACCA | -0.00098 |
| CCTTAACG | 0.047 |
| GTTACTCA | 0.0812 |
| CTTGCGCA | 0.131 |
| CCGACGGC | -0.0821 |
| CGTGATGC | 0.184 |
| CGGGATGC | -0.276 |
| GCGCATTA | -0.118 |
| AGATCTTA | 0.128 |
| CTTTGCGC | 0.228 |
| CATTTCGC | 0.0606 |
| ATCAAGCG | 0.199 |
| AAAATGAA | 0.155 |
| CGACGGAC | -0.0405 |
| GATGTGTA | 0.0177 |
| CCATTGGA | -0.142 |
| CCTGTTTA | 0.156 |
| CACGTGGC | -0.0245 |
| CGAGTAAG | 0.0298 |
| GGACCACC | -0.254 |
| GGCCCACA | -0.175 |

| Sequence | PBM E-score |
| --- | --- |
| CTTAAACC | -0.168 |
| GACAATCA | -0.0343 |
| ATCCGTAC | 0.173 |
| ACATGCAA | 0.11 |
| CGATGAAC | -0.0118 |
| ACAAGTGG | -0.119 |
| CCTCGCGA | -0.196 |
| AGGCGGTC | -0.282 |
| AGAAATAC | 0.0948 |
| AGGATACG | -0.0326 |
| CTTTCTTC | -0.0997 |
| CGATGTAG | -0.0606 |
| AACAAATT | 0.32 |
| CTAACGGA | 0.00797 |
| GGAACATA | -0.0662 |
| AGTATTTA | 0.171 |
| AGCTAGCT | 0.0292 |
| AACACGGT | -0.0651 |
| GAGGAGGC | -0.21 |
| CTGAAACA | -0.0169 |
| ATGGTAGA | 0.136 |
| CTTCAAAC | -0.0167 |
| AGCTAGTA | -0.0691 |
| GCGATGAA | 0.0225 |
| GAAAAGTA | 0.151 |

| Sequence | PBM E-score |
| --- | --- |
| AATGTGCA | 0.00635 |
| TTGCGAAA | 0.151 |
| AAGTTTCC | 0.0622 |
| AAGCAAGC | -0.108 |
| GTAAATAC | 0.13 |
| AGTGAGCG | -0.00374 |
| GGAGTGCA | -0.15 |
| GAATGAGA | -0.0479 |
| AGCATGGG | -0.178 |
| CCGTTCCC | -0.0554 |
| ACAGCAAT | 0.121 |
| GAGCAGCA | 0.0584 |
| ATACGATC | 0.0912 |
| GATCTGCC | -0.116 |
| AAAGAATC | -0.12 |
| ACTTCGAT | 0.179 |
| CGCTACTC | -0.0758 |
| AAGGGGTG | -0.193 |
| GCCTGCAA | -0.222 |
| AGTGTAGC | 0.0136 |
| AGAGCTAG | -0.0602 |
| CTAGAGGA | -0.162 |
| GTAGTCAC | -0.0594 |
| CTAAGTAG | 0.0461 |
| AGTACCGG | -0.229 |

| Sequence | PBM E-score |
| --- | --- |
| AGAATACC | 0.109 |
| GACCGGGC | -0.224 |
| CGAGACTC | -0.165 |
| GAGGTCGC | -0.02 |
| TAGTTTAA | 0.19 |
| CATGCATG | 0.0335 |
| AGTGGCCA | -0.0581 |
| AACTCATT | -0.0241 |
| ACCGCCGT | 0.209 |
| GCGTAGCA | -0.0701 |
| TAACCCTA | -0.197 |
| GGGACGTA | 0.0851 |
| AAAAGTGT | 0.0733 |
| GCTCCCCA | -0.38 |
| CTTGGGCA | -0.0886 |
| ACCCTGCA | -0.0112 |
| CAACATGG | -0.0222 |
| ATGGCACG | 0.111 |
| AACGATTA | 0.124 |
| ATCGGCGA | -0.156 |
| ATACGTAT | 0.376 |
| ATAGATTC | 0.0789 |
| CTGTAGCC | -0.0695 |
| AAGCTTCC | -0.198 |
| GGGCAGGA | -0.215 |

| Sequence | PBM E-score |
| --- | --- |
| ATTATGTC | 0.359 |
| TGTAGCAA | -0.178 |
| GCTCACCA | -0.205 |
| AATTACCA | 0.202 |
| GCCCATAA | -0.228 |
| CGCTTACA | 0.0933 |
| GAATCGAC | 0.00906 |
| CTAACCTA | 1e-05 |
| GAGACTGA | -0.0322 |
| CAGTAATC | 0.1 |
| AGACAAAG | -0.0312 |
| AACTTTAT | 0.147 |
| TAATAACA | 0.245 |
| GCCATGTA | -0.0589 |
| ACGATCCA | -0.0144 |
| ACTGACAT | 0.267 |
| CCTCTAAC | -0.116 |
| GGCTAAAA | -0.0694 |
| AGACGAGA | 0.0197 |
| ATAGATCC | -0.0277 |
| ATTTTACG | 0.316 |
| CGAATGAG | 0.167 |
| ACCGGATC | -0.149 |
| ATATTCAA | 0.222 |
| GGACAAGA | -0.0276 |

| Sequence | PBM E-score |
| --- | --- |
| CCTAAGAA | 0.0394 |
| GTCCCCCA | -0.332 |
| GCAATGCC | -0.0854 |
| CCACGTAA | 0.275 |
| AACGATAC | -0.0951 |
| GCATCGCA | -0.282 |
| AATTAGAT | 0.17 |
| GCCGAAAC | -0.156 |
| GATAGTCC | -0.124 |
| CCACTCCG | -0.169 |
| GTATTGGA | -0.038 |
| AAGGTTGG | 0.0155 |
| GATTGAGA | 0.141 |
| CTTAGTCA | 0.0314 |
| AAGCTACG | 0.0334 |
| CTGGGAAC | -0.0551 |
| ACTTTGGA | 0.149 |
| GGTTTAAC | 0.00839 |
| GCATCCAC | 0.0482 |
| ACTCTCTC | -0.0935 |
| ATGCGTTG | 0.143 |
| ACTGTTTG | 0.0599 |
| AGTATACA | 0.0734 |
| GACTTAAA | 0.112 |
| ACAAGAAT | 0.246 |

| Sequence | PBM E-score |
| --- | --- |
| CAGAGCAG | -0.107 |
| ACGGCCCG | 0.0503 |
| AATTGTAC | 0.159 |
| CAACATAC | 0.209 |
| GAGTGCGA | -0.199 |
| CTTAAGCC | -0.0367 |
| ACTTCACA | 0.079 |
| CCCAACGC | 0.0283 |
| GTTCATAA | 0.0887 |
| GTCTGTTA | -0.0274 |
| AATCTACC | 0.0596 |
| GACACCTA | -0.203 |
| ACACTTCT | 0.0868 |
| AGGGCGGC | -0.181 |
| ATTGATAG | 0.11 |
| CCATATAC | 0.154 |
| CAGCAGTC | -0.258 |
| ATATAACA | 0.268 |
| CTATGAAA | 0.0508 |
| TACAACAA | 0.143 |
| CGCTGAGA | -0.0296 |
| TGCGTACA | 0.0561 |
